About 220 (0.56%) of roughly 39,000 compounds showed activity. Some of the results follow.

This passage reports relative growth results from the supplement of paper PMC9446081.
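Also: static incubation at 37 °C against the wild-type strain, values averaged over two biological replicates.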

In the experiment the test system is Escherichia coli K-12 BW25113. Kind of experiment: relative growth (OD600 normalised to plate interquartile mean) (fraction); higher = less growth inhibition, active = 0.2 or less. The following applies: 50 µM; LB; incubation time: overnight (16-24 h).
Consider `COC(=O)[C@H]1[C@H](CO)[C@H]2Cn3c(ccc(C4=CCCC4)c3=O)[C@@H]1N2S(=O)(=O)c1cn(C)cn1`, for which the relative growth is inactive: 1.

As to `C[C@@H]1CN([C@@H](C)CO)C(=O)CCCn2cc(nn2)CO[C@@H]1CN(C)C(=O)Oc1cccc2ccccc12`, the relative growth was inactive: 0.977.

As for `NC(=O)CN1C[C@H](O)CC1=O`, the relative growth is inactive: 0.975.

As for `CC1=NCCc2c1[nH]c1cc(O)ccc21.Cl.O.O`, the relative growth was inactive: 1.

As to `NCCc1ccc(S(=O)(=O)F)cc1`, the relative growth was inactive: 0.957.

Take `COP(=S)(OC)Oc1ccc([N+](=O)[O-])cc1`: the relative growth is inactive: 1.07.

In the case of `C[C@@H]1C(=O)O[C@H]2[C@H](O)[C@@]34[C@@H]5OC(=O)[C@@]3(O[C@@H]3OC(=O)[C@H](O)[C@@]34[C@H](C(C)(C)C)[C@H]5O)[C@@]12O`, the relative growth is inactive: 1.03.

`O=C1CO[C@]2(CNCCOC2)CN1CC1CC1`: the relative growth was inactive: 0.98.

In the case of `OCC[N+]12CN3CN(CN(C3)C1)C2`, the relative growth is inactive: 1.03.

`CC(=O)OC1CC(OC(C)=O)C2(C)C(CC(OC(C)=O)C3(C)C2CCC2(C)C(c4ccoc4)C(=O)C4OC423)C1(C)C` (stereo not drawn): the relative growth was inactive: 0.982.

As to `Nc1ncccc1CN1CC[C@]2(CC(=O)NC2=O)C1`, the relative growth is inactive: 0.979.

For the compound `CN(C)[C@@H](CN)c1cccc(C(F)(F)F)c1`, the relative growth was inactive: 0.897.

Turning to `C1CCN(C[C@H]2CO[C@]3(CNCCOC3)C2)C1`, the relative growth was inactive: 1.01.

For `C[C@H](O)[C@]12[C@@H]3CC=C[C@H]1N2CC3` (stereo partly drawn), the relative growth is inactive: 0.993.

On to `CC(C)c1cccc2c1OCC[C@H](N)[C@@H]2O`, for which the relative growth is inactive: 0.998.

In the case of `C=C(C)c1cc2cc(C(C)=O)c(O)cc2o1`, the relative growth was inactive: 0.934.

On to `N#CC(OC1OC(COC2OC(CO)C(O)C(O)C2O)C(O)C(O)C1O)c1ccccc1` (stereo not drawn), for which the relative growth is inactive: 1.05.

With `C[C@@H]1CN([C@H](C)CO)C(=O)CCCn2cc(nn2)CO[C@@H]1CN(C)C(=O)Oc1ccc2ccccc2c1`, the relative growth was inactive: 1.02.

In the case of `NCCO.NCCO.O[AsH]O[AsH]O` (stereo not drawn), the relative growth was inactive: 1.04.

On to `CCCCCCCCCCCCCCCC[N+](C)(C)C.[Br-]`, for which the relative growth is active: 0.0522.

In the case of `O=c1cccc2n1CC1CNCC2C1` (stereo not drawn), the relative growth was inactive: 1.03.

`CC(=O)Oc1ccc(C=Cc2cc(OC(C)=O)cc(OC(C)=O)c2)cc1`: the relative growth was inactive: 0.832.

For `CNC(=O)[C@H]1C[C@H]2CN(CC3CC3)C[C@H]1O2`, the relative growth was inactive: 0.987.

Turning to `NCC1(c2ccc(Cl)cc2)CC1`, the relative growth was inactive: 0.969.

For the compound `Cc1[nH]c2ccccc2c1CCN`, the relative growth was inactive: 0.971.

With `CC12C=CC(=O)C=C1CCC1C2CCC2(C)C(=O)CCC12` (stereo not drawn), the relative growth is inactive: 1.01.

With `Cn1cc([C@@]23C[C@]2(C)COC3=O)cn1`, the relative growth was inactive: 0.997.

For the compound `Fc1ccc(Oc2ccnc3cc(Cl)cc(Cl)c23)cc1`, the relative growth is inactive: 1.15.

Turning to `O=C1CCCC2C3CCCN4CCCC(CN12)C34` (stereo not drawn), the relative growth was inactive: 1.05.

`NCc1cc(=O)[nH]o1`: the relative growth was inactive: 0.984.

In the case of `CC(=O)NN1Cc2ccccc2C1=N`, the relative growth was inactive: 1.

With `N[C@@H](c1ccccc1)[C@H](O)c1ccccc1`, the relative growth is inactive: 0.969.

For the compound `NCCc1cccs1`, the relative growth was inactive: 0.983.

With `NC[C@@H](O)c1ccccc1`, the relative growth was inactive: 0.976.

For `CC(C)C[C@@H]1NC[C@@H]2CCCN2C1=O`, the relative growth was inactive: 1.01.

In the case of `NC(=O)CN1CC(O)CC1=O` (stereo not drawn), the relative growth was inactive: 1.02.

As for `CN[C@@H]1[C@@H](O)[C@@H](O[C@@H]2[C@@H](O)[C@H](O[C@H]3O[C@H](CN)CC[C@H]3N)[C@@H](N)C[C@H]2N)OC[C@]1(C)O.CN[C@@H]1[C@@H](O)[C@@H](O[C@@H]2[C@@H](O)[C@H](O[C@H]3O[C@H]([C@@H](C)N)CC[C@H]3N)[C@@H](N)C[C@H]2N)OC[C@]1(C)O.CN[C@@H]1[C@@H](O)[C@@H](O[C@@H]2[C@@H](O)[C@H](O[C@H]3O[C@H]([C@@H](C)NC)CC[C@H]3N)[C@@H](N)C[C@H]2N)OC[C@]1(C)O`, the relative growth was inactive: 0.624.

In the case of `CC1=C[C@H]2[C@]3(O)[C@H](C=C(CO)C[C@]2(O)C1=O)[C@H]1C(C)(C)[C@@]1(O)[C@H](O)[C@@H]3C`, the relative growth was inactive: 1.02.

Consider `O=C(O)C[C@H]1CC[C@@H]2NC[C@H](O)COC[C@H]2O1`, for which the relative growth was inactive: 0.998.

On to `CN1CCN(c2ccccc2CN)CC1`, for which the relative growth was inactive: 1.02.

Turning to `CC1OC(OC2C=C3CCC4C(CCC5(C)C(c6ccc(=O)oc6)CCC45O)C3(C)CC2)C(O)C(O)C1O` (stereo not drawn), the relative growth is inactive: 0.977.

Regarding `COC(C)(C)CCCC(C)CC=CC(C)=CC(=O)OC(C)C` (stereo not drawn), the relative growth is inactive: 0.816.

In the case of `C[C@H]1C[C@@H]2CNC[C@@H]2O1`, the relative growth was inactive: 0.993.

`CNC(=O)[C@H]1Cn2ccnc2C2(CCNCC2)O1`: the relative growth was inactive: 0.989.

With `Cn1ccnc1CN1CCC[C@]2(CCNC2=O)C1`, the relative growth is inactive: 0.87.

For `C1CCN2C(C3N4CCCCN34)N2C1` (stereo not drawn), the relative growth was inactive: 0.976.

Regarding `C/C=C(\C)C(=O)O[C@H]1C[C@@H](OC(C)=O)[C@@]2(C(=O)OC)CO[C@H]3[C@@H](O)[C@@](C)([C@]45O[C@@]4(C)[C@H]4C[C@@H]5O[C@H]5OC=C[C@@]54O)[C@H]4[C@]1(CO[C@]4(O)C(=O)OC)[C@@H]32`, the relative growth is inactive: 1.01.

For the compound `C[C@@H](CN)CC(=O)O`, the relative growth was inactive: 1.

For `CC(C)=CC1C(C(=O)OCc2cccc(Oc3ccccc3)c2)C1(C)C` (stereo not drawn), the relative growth is inactive: 0.897.

As to `NNCc1ccccc1`, the relative growth is inactive: 1.

Take `c1ccc2sc(C3(N4CCCCC4)CCCCC3)cc2c1`: the relative growth is inactive: 0.965.

For `C[N+](C)(C)CC#CCN1CCCC1=O`, the relative growth was inactive: 0.988.

With `Cc1cc(C2=NO[C@](c3cc(Cl)cc(Cl)c3)(C(F)(F)F)C2)ccc1C(=O)NCC(=O)NCC(F)(F)F`, the relative growth was inactive: 0.982.

In the case of `CC[C@@H](C)[C@H]1NC(=O)C(C(C)=O)=C1O`, the relative growth was inactive: 0.975.

With `CC12CCC3C(CCC4CC(O)CCC43C)C1CCC2=O` (stereo not drawn), the relative growth was inactive: 1.02.

In the case of `Cn1ccnc1N1CCNCC1`, the relative growth is inactive: 0.986.

On to `CN(C)Cc1c[nH]c2ccccc12`, for which the relative growth is inactive: 0.976.

In the case of `C[C@H]1CN([C@@H](C)CO)C(=O)c2c(c3ccccc3n2C)-c2ccccc2CO[C@H]1CN(C)C(=O)Oc1ccccc1`, the relative growth is inactive: 1.

With `COC(=O)C[C@H]1CC[C@H]2NC[C@H](O)COC[C@@H]2O1`, the relative growth is inactive: 0.992.

As to `Nc1ccncc1`, the relative growth is inactive: 1.13.

With `c1ccc2sc(C3(N4CCCC4)CCCCC3)cc2c1`, the relative growth was inactive: 0.973.

Take `Cc1noc(C)c1CN1CCNCC1`: the relative growth was inactive: 1.01.

For `C[C@@H]1CN([C@H](C)CO)C(=O)CCCn2cc(nn2)CO[C@H]1CN(C)C(=O)Oc1cccc2ccccc12`, the relative growth was inactive: 1.

Take `CN1CC(=O)N(c2cccnc2)C[C@]12CCNC2`: the relative growth is inactive: 0.998.

As for `Cc1cc([N+](=O)[O-])cnc1N1CCNCC1`, the relative growth was inactive: 0.95.

In the case of `COc1cc2c3cc1Oc1c(OC)c(OC)cc4c1[C@@H](Cc1cccc(c1)Oc1ccc(c(O)c1)C[C@@H]3N(C)CC2)N(C)CC4`, the relative growth is inactive: 0.978.

Turning to `NC1(c2ccc(F)cc2)CCC1`, the relative growth is inactive: 1.02.

For the compound `CC12CC(=O)C3C(CCC4=CC(=O)CCC43C)C1CCC2=O` (stereo not drawn), the relative growth is inactive: 1.05.

For the compound `CN(CCC[C@@H](O)c1cccnc1)[NH2+][O-]`, the relative growth is inactive: 1.02.

In the case of `COc1ccc(C(=O)N2CCCC2=O)cc1`, the relative growth is inactive: 1.12.

In the case of `CN1C[C@H](C(=O)N[C@]2(C)O[C@@]3(O)[C@@H]4CCCN4C(=O)[C@H](Cc4ccccc4)N3C2=O)C=C2c3cccc4[nH]cc(c34)C[C@H]21`, the relative growth was inactive: 1.02.

Take `O=C(O)CN1C[C@@H]2C(NC(=O)c3ccno3)[C@H]2C1` (stereo partly drawn): the relative growth was inactive: 1.05.

Turning to `Cc1cccc(Cc2cnc[nH]2)c1C`, the relative growth is inactive: 0.959.

Turning to `O=[As]O[As]=O` (stereo not drawn), the relative growth was inactive: 1.08.

Turning to `O=c1[nH]c2ccccc2n1C1CCN(Cc2ccc(-c3nc4cc5[nH]cnc5cc4nc3-c3ccccc3)cc2)CC1`, the relative growth was inactive: 1.09.

With `Br.CN1C2CC(OC(=O)C(CO)c3ccccc3)CC1C(O)C2` (racemic), the relative growth is inactive: 1.11.

Regarding `CCC(C)C(=O)OC1CC2(C)C(c3ccoc3)OC(=O)CC23OC2(C)OC34C(OC(C)=O)C3(O)C(OC(=O)C5(C)OC5C)C5(C)CC3(O)C(C)(C5CC(=O)OC)C14O2` (stereo not drawn), the relative growth was inactive: 0.745.

Regarding `CN1CCC2(C)c3cc(O)ccc3N(C)C12.O=C(O)C=CC(=O)O` (stereo not drawn), the relative growth is inactive: 0.961.

For `CN1C(=O)N(C)C2C1N(C)C(=O)N2C` (stereo not drawn), the relative growth was inactive: 1.01.

`COc1ccc(N=[N+]=[N-])cc1`: the relative growth is inactive: 1.01.

In the case of `COC(=O)C[C@H]1CC[C@@H]2NC[C@H](O)COC[C@H]2O1`, the relative growth is inactive: 1.04.

With `O=C(O)CCCc1ccc(N(CCCl)CCCl)cc1`, the relative growth was inactive: 1.01.

For the compound `CNC(=O)Oc1ccc2c(c1)C1(C)CCN(C)C1N2C` (stereo not drawn), the relative growth is inactive: 1.07.

Regarding `O=C1CCCC2C3CC(CN12)C1CCCCN1C3.[O-][Cl+3]([O-])([O-])O` (stereo not drawn), the relative growth was inactive: 1.18.

For the compound `COC(=O)C[C@H]1CC[C@@H]2NC[C@@H](O)COC[C@H]2O1`, the relative growth was inactive: 0.999.

In the case of `Nc1c[n+](CCc2ccccc2)no1`, the relative growth was inactive: 0.972.

In the case of `CN1CCOCC12CCN(c1ncccn1)CC2`, the relative growth is inactive: 1.02.

On to `CCCCOC(=O)C1=CC(=O)CC(C)(C)O1`, for which the relative growth is inactive: 0.979.

On to `O=c1[nH]c2ccccc2n1CCCN1CCC(n2c(=O)[nH]c3cc(Cl)ccc32)CC1`, for which the relative growth is inactive: 1.16.

Turning to `CC(=O)c1c(O)cc(C)oc1=O`, the relative growth is inactive: 0.951.

On to `CC(C)C[C@@H](NC(=O)[C@H](Cc1ccccc1)NC(=O)CNC(=O)[C@@H](C)NC(=O)[C@@H](N)Cc1ccc(O)cc1)C(=O)O`, for which the relative growth is inactive: 0.981.

Take `CC(C)C12OC1C1OC13C1(C)CCC4=C(COC4=O)C1CC1OC13C2O` (stereo not drawn): the relative growth was inactive: 0.947.

As for `Cc1cc(O[C@@H]2O[C@H](CO)[C@@H](O)[C@H](O)[C@H]2O)c2c3c(c(=O)oc2c1)CCC3`, the relative growth is inactive: 1.05.
